The source of these data is paper PMC4336329 (PLoS ONE, 2015).

Among all 310,000 compounds or so, about 2,200 (0.71%) showed an effect of 50% or more. The effect is printed as a negative number. The list shows a part of the results.

In the test the target is human ether-à-go-go-related gene (hERG) potassium channel (human, UniProt Q12809). The test is described as follows: primary screen, population patch clamp on CHO cells stably expressing hERG.
human ether-à-go-go-related gene (hERG) potassium channel, sequence (Q12809 whole entry, looked up): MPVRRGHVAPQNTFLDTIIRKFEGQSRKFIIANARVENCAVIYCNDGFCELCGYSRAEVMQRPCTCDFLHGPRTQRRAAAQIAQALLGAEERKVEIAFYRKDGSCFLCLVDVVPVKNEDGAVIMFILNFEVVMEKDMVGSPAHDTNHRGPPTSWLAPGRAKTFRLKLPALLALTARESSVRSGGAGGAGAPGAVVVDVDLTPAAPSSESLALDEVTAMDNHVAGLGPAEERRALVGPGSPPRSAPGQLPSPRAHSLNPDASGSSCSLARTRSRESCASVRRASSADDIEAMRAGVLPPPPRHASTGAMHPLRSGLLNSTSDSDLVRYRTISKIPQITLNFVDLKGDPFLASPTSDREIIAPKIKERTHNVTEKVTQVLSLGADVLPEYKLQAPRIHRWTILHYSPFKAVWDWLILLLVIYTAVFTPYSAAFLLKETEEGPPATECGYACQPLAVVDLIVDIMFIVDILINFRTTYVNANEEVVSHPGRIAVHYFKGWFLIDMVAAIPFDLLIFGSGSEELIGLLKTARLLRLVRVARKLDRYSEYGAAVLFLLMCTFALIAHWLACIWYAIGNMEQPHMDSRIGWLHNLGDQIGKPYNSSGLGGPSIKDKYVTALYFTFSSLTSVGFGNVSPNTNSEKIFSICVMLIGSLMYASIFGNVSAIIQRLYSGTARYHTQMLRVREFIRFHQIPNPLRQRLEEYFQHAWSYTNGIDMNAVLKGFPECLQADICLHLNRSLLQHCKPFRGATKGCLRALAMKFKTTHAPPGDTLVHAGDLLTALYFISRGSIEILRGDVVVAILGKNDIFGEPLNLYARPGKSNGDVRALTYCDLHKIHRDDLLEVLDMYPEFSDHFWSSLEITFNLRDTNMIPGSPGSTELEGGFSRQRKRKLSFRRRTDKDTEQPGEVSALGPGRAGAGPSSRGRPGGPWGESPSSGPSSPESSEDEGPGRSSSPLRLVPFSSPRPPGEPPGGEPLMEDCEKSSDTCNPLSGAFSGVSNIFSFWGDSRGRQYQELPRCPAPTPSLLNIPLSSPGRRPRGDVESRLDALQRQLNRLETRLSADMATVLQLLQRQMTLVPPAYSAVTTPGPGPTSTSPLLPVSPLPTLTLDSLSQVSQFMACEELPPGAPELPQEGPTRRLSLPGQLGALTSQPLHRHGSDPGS
As for `C[C@]12CCC3C(CCC4=C/C(=N/OCC(=O)NC(CCC(=O)O)C(=O)O)CC[C@@]43C)C1CCC2O` (some centres unmarked), the “hERG current change (%, negative = inhibition) at 1uM” value is given as 10.5%.

In the case of `O=C(COC(=O)CNS(=O)(=O)/C=C/c1ccccc1)Nc1cccc2ccccc12`, the “hERG current change (%, negative = inhibition) at 1uM” value amounted to 13.9%. With `CC(=O)NS(=O)(=O)c1ccc(NC(=S)NC(=O)Cc2ccccc2)cc1` the figure was 8.83%; with `CCCCN(CCCC)CCCNC(=O)C12CN(Cc3ccccc3)CC1C(c1cccc([N+](=O)[O-])c1)=NO2` (centres unmarked), -53.1%.

As for `N#C/C(=C/Nc1ccccc1)c1ccsc1`, the “hERG current change (%, negative = inhibition) at 1uM” value is 11%. With `O=C(CN1CCc2ccccc2C1)Nc1ccccc1C(F)(F)F.O=C(O)C(=O)O`, the “hERG current change (%, negative = inhibition) at 1uM” value is recorded as 9.96%. With `O=C(Nc1cc(=O)[nH]c2ncnn12)c1ccccc1Cl`, the “hERG current change (%, negative = inhibition) at 1uM” value was determined as 5.08%. `CCOc1ccccc1N(C(=O)c1ccco1)C(C(=O)NC1CCCC1)c1cccnc1` (centres unmarked): the “hERG current change (%, negative = inhibition) at 1uM” value stood at 13%. For the compound `CC(C)C(=O)Nc1nnc(S(=O)(=O)N2c3ccccc3CC2C)s1` (centres unmarked), the “hERG current change (%, negative = inhibition) at 1uM” value worked out at 14.7%. As for `CNC(=O)Nc1cccc(NC(=O)NC)n1`, the “hERG current change (%, negative = inhibition) at 1uM” value was found to be 0.557%. With `Cc1cc(NC(=O)CC#N)n(-c2ccccc2)n1`, the “hERG current change (%, negative = inhibition) at 1uM” value came to 7.17%. On to `Cc1ccccc1-c1nn(-c2ccccc2)cc1C(=O)NCC(c1ccco1)N1CCCC1` (centres unmarked), for which the “hERG current change (%, negative = inhibition) at 1uM” value turned out to be 14.2%. With `COc1ccccc1NC(=O)CN1CCN(CC(=O)Nc2ccc(OCc3ccccc3)cc2)CC1` the figure was -2.39%; with `CCOc1cc(CNC(C)C)c(Cl)cc1OCC(=O)NCCc1ccccc1`, 0.929%; with `CCCC(=O)NC(c1ccc(OC)c(OC)c1)c1cc(Cl)c2cccnc2c1O` (centres unmarked), 11.2%. The figure for `Cc1cc(/C=C2/NC(=O)N(c3ccccc3)C2=O)c(C)n1C(C)C` is 21.3%. With `COc1ccccc1-c1nnc(SCc2ccccn2)n1C` the figure was -2.55%; with `CCOC(=O)N1CCN(C(=O)Cc2ccccc2OC)CC1`, 18.2%. With `CC(C)OC(=O)/C(=C/c1ccc(Br)cc1)NC(=O)c1ccco1`, the “hERG current change (%, negative = inhibition) at 1uM” value is -1.31%. With `CN(C)c1ccc(/C=N/N(CCC#N)C2=NS(=O)(=O)c3ccccc32)cc1` the figure was 12.3%. The figure for `O=c1c2ccccc2c(/C=N/n2cnnc2)c(O)n1-c1ccccc1` is 1.77%. For the compound `CC1CCC2(CC1)NC(=O)N(Cc1nnc(-c3cccs3)o1)C2=O` (centres unmarked), the “hERG current change (%, negative = inhibition) at 1uM” value stood at 5.1%.

Regarding `O=C(Nc1cccnc1)c1cnc2ccccc2n1`, the “hERG current change (%, negative = inhibition) at 1uM” value was 13.9%. Consider `CCNC(=O)NC1c2ccccc2CSc2ccccc21.O` (centres unmarked), for which the “hERG current change (%, negative = inhibition) at 1uM” value is listed as 14.8%.

As for `CCCNC(=O)c1onc(CSc2ccc(Cl)cc2)c1C(=O)NCCC(C)C`, the “hERG current change (%, negative = inhibition) at 1uM” value turned out to be 11.5%. With `Cc1ccc(Oc2ncccc2COC(=O)Nc2ccccc2C)cc1` the figure was 15.8%. The figure for `CC(C)(C)NCc1cc(Br)ccc1OCc1cccs1.Cl` is -10.1%. For `C=CCn1c(SCC(=O)NCC(=O)OCC)nnc1-c1cccc(OC)c1`, the “hERG current change (%, negative = inhibition) at 1uM” value worked out at 7.05%. With `Cc1nn2c(-c3cccc(NC(=O)CN4CCOCC4)c3)nnc2c2ccccc12` the figure was 6.26%. For `CC(=O)c1ccc(NC(=O)C(Cc2ccccc2)n2cccc2)cc1` (centres unmarked), the “hERG current change (%, negative = inhibition) at 1uM” value is on record as 5.8%. With `O=C1NC(=Nc2ccc(Cl)cc2)SC1Cc1cccc(Cl)c1Cl` (centres unmarked), the “hERG current change (%, negative = inhibition) at 1uM” value stood at 0.88%. As for `O=c1nc2n(c3c4c(sc13)CCC4)CCC2`, the “hERG current change (%, negative = inhibition) at 1uM” value was found to be 13%. With `COC(=O)C1=C(c2ccc(F)cc2OCc2ccccc2)C[C@@H]2CC[C@H]1N2C(=O)NCc1ccccc1Cl` the figure was 10.7%; with `C/C(=N/OCC(=O)Nc1ccc(C)cc1C)c1cccs1`, -2.05%; with `O=C(CCC(=O)Nc1ccc(F)cc1)N/N=C/c1ccccc1`, 10.6%. The figure for `CC(Sc1ccccn1)C(=O)Nc1ccccc1` (centres unmarked) is 4.61%; for `CCOC(=O)C(O)(c1ccc(NC(=O)NC)cc1)C(F)(F)F` (centres unmarked) it is 10.1%; for `COc1ccc(C(F)(F)F)cc1N/C=C/c1nnnn1-c1ccc2ccccc2c1` it is 6.79%. In the case of `CCCCC(NS(=O)(=O)c1ccc(OC)cc1)C(=O)O` (centres unmarked), the “hERG current change (%, negative = inhibition) at 1uM” value is on record as 4.31%. With `CC1CCCC(C)N1CCCNC(=O)c1ccc2nc(N3CCOCC3)sc2c1` (centres unmarked) the figure was 6.49%; with `O=C(NNC(=O)c1csc(-c2cccnc2)n1)Nc1ccc(Cl)cc1`, 13.1%; with `O=C(Nc1ccccc1F)c1ccc(-c2cccc([N+](=O)[O-])c2)o1`, 13.7%. As to `Cc1ccc(S/C(=N\S(=O)(=O)c2ccc(Cl)cc2)c2ccccc2)cc1`, the “hERG current change (%, negative = inhibition) at 1uM” value stood at 0.488%. The figure for `CCn1c(-c2cccc(Cl)c2)n[nH]c1=S` is 0.948%.
